Assay results taken from the supplement of paper PMC7826260.
Some of the results follow. The data describe in vitro nicking of single-stranded DNA by Rep domains (1 h at 37 °C, 3 µM enzyme); the outer parts of the 90-letter strands are left off. The score is log2 (uncut reads / reads without enzyme); strong cutting gives strongly negative numbers. There is no active / inactive call. Because reads are shares of a total, they shift together, so uncut sequences can rise above 0 when many others are cut.

Tests used:
Assay in all cases: uncleaved DNA left, log2 of reads against the no-enzyme library (log2 ratio); higher = less cleavage (more negative = more Rep cleavage of the k-mer); sequences stand for … in CTCGTCCG…ACCGGAGA
[1] = tested on: T1, Rep nickase domain of Muscovy duck circovirus
T1 sequence (residues 1-111, tag not shown): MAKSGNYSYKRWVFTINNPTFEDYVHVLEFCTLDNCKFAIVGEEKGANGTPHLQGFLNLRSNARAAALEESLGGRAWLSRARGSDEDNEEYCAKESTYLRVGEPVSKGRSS
Protocol: (§1)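 A pool of 90-nt single-stranded DNAs with seven random bases just before the constant AC of the nick site (name = the seven bases) was cut by 3 µM recombinant His6-SUMO-tagged Rep nickase domain (300 nM DNA, 50 mM HEPES pH 8.0, 50 mM NaCl, 1 mM MnCl2, 1 h, 37 °C, three replicates). Uncut DNA was amplified and sequenced.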

[2] = tested on: T2, Rep nickase domain of banana bunchy top virus
T2 sequence (residues 1-94, tag not shown): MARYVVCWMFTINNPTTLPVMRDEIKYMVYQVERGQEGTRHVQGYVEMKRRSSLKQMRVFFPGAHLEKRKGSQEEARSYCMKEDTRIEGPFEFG
Protocol: as §1

[3] = tested on: T3, Rep nickase domain of cabbage leaf curl virus
T3 sequence (residues 1-116, tag not shown): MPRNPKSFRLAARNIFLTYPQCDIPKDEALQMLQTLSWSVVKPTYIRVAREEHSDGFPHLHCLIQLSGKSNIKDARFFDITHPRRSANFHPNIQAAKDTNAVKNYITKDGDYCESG
Protocol: as §1

[4] = tested on: T4, Rep nickase domain of chickpea chlorotic dwarf virus
T4 sequence (residues 1-124, tag not shown): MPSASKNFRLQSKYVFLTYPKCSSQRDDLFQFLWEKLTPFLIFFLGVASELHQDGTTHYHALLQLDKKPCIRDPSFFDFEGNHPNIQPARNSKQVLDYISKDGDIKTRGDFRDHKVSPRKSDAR
Protocol: as §1

[5] = tested on: T5, Rep nickase domain of faba bean necrotic yellows virus
T5 sequence (residues 1-98, tag not shown): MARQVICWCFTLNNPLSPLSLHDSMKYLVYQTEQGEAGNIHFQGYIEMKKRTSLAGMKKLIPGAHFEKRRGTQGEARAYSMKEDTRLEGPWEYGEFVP
Protocol: as §1

[6] = tested on: T6, Rep nickase domain of maize striate mosaic virus
T6 sequence (residues 1-117, tag not shown): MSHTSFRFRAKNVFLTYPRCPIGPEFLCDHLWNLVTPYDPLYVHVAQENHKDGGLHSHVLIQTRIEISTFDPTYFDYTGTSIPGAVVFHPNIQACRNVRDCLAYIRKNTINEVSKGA
Protocol: as §1

[7] = tested on: T7, Rep nickase domain of porcine circovirus 2
T7 sequence (residues 2-116, tag not shown): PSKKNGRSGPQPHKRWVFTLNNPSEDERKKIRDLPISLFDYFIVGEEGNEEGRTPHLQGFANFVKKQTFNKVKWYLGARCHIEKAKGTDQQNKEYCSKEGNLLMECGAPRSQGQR
Protocol: as §1

[8] = tested on: T8, Rep nickase domain of tomato yellow leaf curl virus
T8 sequence (residues 1-136, tag not shown): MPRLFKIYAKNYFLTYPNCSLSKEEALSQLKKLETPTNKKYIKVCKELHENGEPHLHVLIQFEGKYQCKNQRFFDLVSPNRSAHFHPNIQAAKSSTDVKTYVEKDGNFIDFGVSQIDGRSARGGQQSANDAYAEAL
Protocol: as §1

[9] = tested on: T9, Rep nickase domain of wheat dwarf virus
T9 sequence (residues 1-137, tag not shown): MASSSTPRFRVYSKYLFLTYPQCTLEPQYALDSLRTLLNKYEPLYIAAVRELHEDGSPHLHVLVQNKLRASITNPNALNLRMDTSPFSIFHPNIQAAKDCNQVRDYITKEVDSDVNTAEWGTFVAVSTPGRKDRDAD
Protocol: as §1

Sequence	uncleaved DNA left (log2) [1]	uncleaved DNA left (log2) [2]	uncleaved DNA left (log2) [3]	uncleaved DNA left (log2) [4]	uncleaved DNA left (log2) [5]	uncleaved DNA left (log2) [6]	uncleaved DNA left (log2) [7]	uncleaved DNA left (log2) [8]	uncleaved DNA left (log2) [9]
GTTCAGT	0.0361	0.0701	0.32	0.819	-0.0222	1.39	0.132	0.172	0.0992
ACGTCAA	-0.0473	0.0453	-0.0406	-0.0864	0.0711	-0.523	-0.0912	-0.157	-0.0262
TGTAGGT	-0.0189	-0.0963	0.278	0.99	-0.0656	1.55	-0.0806	-0.134	-0.0284
TAGCAAA	0.0716	-0.0846	0.0534	-0.524	0.0814	-0.43	-0.467	0.0544	-0.104
GCGTGGG	0.161	0.0133	-0.256	-0.275	0.238	-0.517	0.199	0.0777	-0.00227
GCAATGC	-0.0406	-0.0656	-0.646	-0.526	-0.0437	-1.12	0.00919	-0.0371	-0.184
CAGCTTT	-0.0273	-0.368	-0.797	-2.33	-0.211	-0.646	-3.69	0.00382	-0.299
GTGTCGT	-0.0934	-0.0135	0.122	0.308	-0.0129	0.0784	-0.145	0.0753	-0.0289
AAACAAC	-0.0812	-0.0287	-0.151	-2.27	-0.0702	-0.64	0.0165	-0.0916	0.0855
GAAAGGT	0.169	0.125	0.26	0.656	-0.0526	1.46	0.0738	0.0459	0.0995
GCACAGA	0.0311	0.112	0.0903	0.532	0.0541	-0.00931	0.0964	0.0714	0.171
GCTGCCC	-0.00764	0.0548	0.0464	0.48	-0.0588	0.522	0.0643	-0.0572	-0.0461
GTCTGCA	-0.056	-0.0477	0.0833	0.396	-0.0705	0.474	0.0753	0.0166	-0.04
ATTATGC	0.0459	-0.0261	-0.546	-0.515	0.0314	-1.12	0.0836	0.0981	0.043
ACATTGT	-0.00359	0.0575	-0.654	-0.879	0.093	-1.18	-0.0327	0.0504	-0.118
TGGTATG	-0.0554	-0.0404	-0.286	-0.188	-0.0935	-0.493	0.0549	-0.102	-0.126
CGGTAGA	-0.0904	-0.00785	-0.0519	0.222	-0.0345	-0.385	-0.0633	-0.0478	-0.0912
GCTGTAG	-0.0294	0.188	-0.632	-0.394	0.118	-0.879	0.106	0.0658	-0.18
TTTGAGA	0.0345	-0.000522	-0.283	-0.413	0.105	-1.08	0.11	0.0319	-0.109
TGTTCAA	0.149	-0.00425	0.259	0.575	0.0722	0.623	-0.046	0.133	0.108
CTACACA	0.0456	0.101	-0.186	-1.94	0.0856	-0.609	0.0133	0.0607	0.00268
TACATGT	-0.0336	-0.101	-0.31	-1.19	0.00397	-0.536	-0.381	-0.105	-0.0955
GAATTTG	0.00554	-0.0871	-0.504	-0.622	-0.0398	-0.952	0.042	0.00999	-0.0635
ACCGTAC	0.0653	-0.0832	-0.33	-0.479	-0.146	-0.775	0.0512	-0.0977	-0.197
AAGGTTA	-0.0395	-0.122	-0.0382	0.405	-0.0899	0.977	-0.157	-0.173	-0.0978
AATTACC	-0.013	-0.158	-0.32	-2.51	-0.03	-0.364	-1.99	0.134	-0.0797
AAATTTA	-0.484	0.000692	-1.61	-2.63	-0.106	-1.06	-1.76	-0.0527	-0.472
TTACTGC	0.0859	0.0192	-0.162	-0.942	0.124	-0.529	0.106	-0.0046	0.109
CTTCATA	-0.00282	0.135	-0.0916	-1.05	0.103	-0.631	-0.063	0.0494	-0.023
TAAAGTT	-0.129	-0.239	-4.29	-3.4	0.0844	-3.04	-2.98	-0.11	-3.79
